Experimental findings from PubChem BioAssay AID1645887 (National Center for Advancing Translational Sciences (NCATS), 2021) are described below.

Where “and” joins values, the source holds several entries; their conditions need not be identical. Equal values may be shown once. The whole screen tested about 16,000 compounds, of which about 40 (0.2%) were called active. About 1% were inconclusive and are not listed. Calls come from the whole dose curve; as a rule, active = well fitted activation curve with a large enough effect; inconclusive = small, poorly fitted or top-dose-only effect, or another doubt; inactive = no such curve, though single readings can be large or run the other way. This is one part of the list.
% is set by controls: 0 for no effect and ±100 for the full control effect.

For the assay, the target named is Rap guanine nucleotide exchange factor 4 (Homo sapiens) (UniProt Q8WZA2). As to the kind of experiment: Validation qHTS for agonist of cAMP-regulated guanine nucleotide exchange factor 4 (EPAC2).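 Note: exchange makes BODIPY-GDP fluorescence drop when released from Rap1B; series mostly up to about 150 µM.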 To be noted: EPAC2 Rap1B BODIPY-GDP exchange, fluorescence; activation: active compounds read high. The method, boiled down: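 Fluorescent exchange assay: 100 nM EPAC2 with 250 nM RAP1B-BODIPY-GDP and 50 uM GDP; compound added, 5 min at room temperature, then read (ex 480/em 540 nm) every 5 min for 30 min. Normalized to 6.5 mM cAMP agonist control.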
UniProt Q8WZA2, sequence (Q8WZA2 whole entry, looked up): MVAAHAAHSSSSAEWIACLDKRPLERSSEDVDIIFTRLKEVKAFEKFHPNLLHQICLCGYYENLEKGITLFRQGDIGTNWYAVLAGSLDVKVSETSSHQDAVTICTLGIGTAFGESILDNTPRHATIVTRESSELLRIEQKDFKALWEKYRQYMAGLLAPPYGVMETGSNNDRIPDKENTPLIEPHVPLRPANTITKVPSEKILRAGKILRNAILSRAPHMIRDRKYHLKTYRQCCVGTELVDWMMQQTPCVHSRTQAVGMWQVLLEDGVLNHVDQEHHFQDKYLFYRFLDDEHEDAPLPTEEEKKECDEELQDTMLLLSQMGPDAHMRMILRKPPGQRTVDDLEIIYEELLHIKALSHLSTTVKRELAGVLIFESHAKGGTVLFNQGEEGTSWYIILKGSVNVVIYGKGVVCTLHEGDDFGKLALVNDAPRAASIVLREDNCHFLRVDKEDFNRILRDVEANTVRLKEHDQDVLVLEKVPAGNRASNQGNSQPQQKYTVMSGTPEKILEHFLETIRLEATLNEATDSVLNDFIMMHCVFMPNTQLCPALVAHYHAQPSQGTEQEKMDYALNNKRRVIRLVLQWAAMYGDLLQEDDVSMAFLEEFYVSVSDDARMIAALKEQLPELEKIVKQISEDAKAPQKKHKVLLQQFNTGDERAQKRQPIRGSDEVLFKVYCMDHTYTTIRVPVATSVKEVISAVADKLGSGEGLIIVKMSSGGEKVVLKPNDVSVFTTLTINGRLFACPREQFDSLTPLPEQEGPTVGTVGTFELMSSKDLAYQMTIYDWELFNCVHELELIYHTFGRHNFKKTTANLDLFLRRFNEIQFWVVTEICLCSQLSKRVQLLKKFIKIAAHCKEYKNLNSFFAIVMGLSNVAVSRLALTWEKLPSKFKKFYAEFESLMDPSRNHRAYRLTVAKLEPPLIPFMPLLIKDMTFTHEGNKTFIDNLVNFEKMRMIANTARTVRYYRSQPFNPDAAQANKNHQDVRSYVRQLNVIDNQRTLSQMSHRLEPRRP
Take `C1=C(CN2CCOCC2)COc2c1cccc2OC[C@@H]1CNCCO1`: the activation is inactive: -18.7%. Regarding `Oc1cc(O)cc(O)c1`, the activation was inactive: -11.7%. As to `COc1ccc(NC(=O)N2CC3(CCN(C(=O)c4csnn4)CC3)C2)cc1`, the activation was inactive: 1.54%. The figure for `O=S(=O)(c1ccccc1)N1CCC2(CCCN(c3ncccn3)C2)CC1` is inactive: 9.61%. With `O=c1cnc2cnc(Nc3ccccc3)nc2n1Cc1ccc(F)cc1` the figure was inactive: -5.67%; with `O=S(=O)(c1ccccc1)N1CCC2(CCCN(c3ccccc3)C2)CC1`, inactive: -21.6%. The figure for `COc1cccc(CN2CCCC(c3nc(-c4ccncc4)ncc3-c3ccccc3C)C2)c1O` (stereo not given) is inactive: -21.6%. As for `Cc1cc2nc3ccc(=[N+](C)C)cc-3sc2cc1N`, the activation is inactive: -3.42%.

As for `CCCCCCc1ccc(N2C[C@H](CCCCC)[C@@H](CC(=O)NCc3ccc(OC)cc3)C2=O)cc1`, the activation is inactive: -14.2%. The figure for `C=C[C@@]1(C)CC(=O)[C@]2(O)[C@@]3(C)[C@@H](O)CCC(C)(C)[C@@H]3[C@H](O)[C@H](OC(C)=O)[C@@]2(C)O1` is inactive: -4.75%. The figure for `CCCN1CCC(=O)N([C@H](CO)Cc2ccccc2)CC1` is inactive: -8.81%; for `CN1CCN(c2ncnc3ccc(-c4cccc(C#N)c4)cc23)CC1` it is inactive: -9.47%; for `CN(C)c1ccc(/C=C/c2ccnc3ccccc23)cc1Cl` it is inactive: -5.92%. The figure for `C/C(=C(\CCOP(=O)(O)O)SC(=O)c1ccccc1)N(C=O)Cc1cnc(C)nc1N` is inactive: -20%. Consider `O=C1CCC[C@@H]2[C@@H](Cc3ccccc3)[C@@H](Nc3ccccc3)C[C@@H]3CCN1[C@@H]32`, for which the activation is inactive: -36.7%.

For the molecule `CC(=O)SC1CC2=CC(=O)CC[C@]2(C)C2CC[C@@]3(C)C(CC[C@@]34CCC(=O)O4)C12` (stereo not given in full), the activation was inactive: -18.5%. The figure for `CC(=O)c1c(O)c(C)c(O)c2c1OC1=CC(=O)C(C(C)=O)C(=O)[C@@]12C` (stereo not given in full) is inactive: -5.68%; for `CC(C)(C)C(=O)OCC(=O)[C@H]1CC[C@H]2[C@@H]3CCC4=CC(=O)CC[C@]4(C)[C@H]3CC[C@]12C` it is inactive: 11.3%; for `COc1ccc(CN2CCC3(CC2)c2ccccc2[C@@H](NC(=O)c2ccccc2OC)[C@@H]3O)cc1O` it is inactive: -9.28%. With `CN=C(NC#N)Nc1ccc(C2=NNC(=O)CC2C)cc1` (stereo not given) the figure was inactive: -6.92% and inactive: -8.13%; with `O=C(c1cc(C(F)(F)F)cc(C(F)(F)F)c1)N1CCC2(CC1)CCN(c1ccccn1)CC2`, inactive: -18.9%; with `O=c1c(-c2ccc(Cl)cc2)nc2cnc(N3CCNCC3)nc2n1CCc1ccccc1`, inactive: -11.7%.

Take `C[C@H](N)[C@H](O)c1cccc(O)c1`: the activation is inactive: 3.96%.

For the molecule `COc1ccc(C(=O)/C(Br)=C\C(=O)O)cc1`, the activation was inactive: -8.52%. For the molecule `COC(=O)c1ccccc1NC(=O)c1ccc(F)cc1`, the activation is inactive: -12.4%.

As to `COc1cccc(-c2ccc3ncnc(N4CCOCC4)c3c2)c1`, the activation is inactive: 1.49%. With `CC(=O)[C@@]1(O)CC[C@H]2[C@@H]3C[C@H](C)C4=CC(=O)CC[C@]4(C)[C@H]3CC[C@@]21C` the figure was inactive: 1.05%. With `O=C(CO)[C@@H](O)[C@H](O)[C@H](O)CO` the figure was inactive: -13.5%; with `CC1(C)S[C@@H]2[C@H](NC(=O)C(C(=O)O)c3ccccc3)C(=O)N2[C@H]1C(=O)O` (stereo not given in full), inactive: -14.6%; with `O=C1CCC[C@@H]2C[C@@]3(C[C@@H]4CCN1[C@H]24)Nc1cc([N+](=O)[O-])ccc1NC3=NC1CCCCC1`, inactive: -24%. The figure for `Cc1nc(C)c(CC(=O)N2CCOc3ccc(CN4CCOCC4)cc3C2)s1` is inactive: -5.71%. In the case of `Cn1c(C(c2cc3ccccc3n2C)c2cc3ccccc3n2C)cc2ccccc21`, the activation is inactive: 11.4%. The figure for `CCOC(=O)OCC/C(SC(=O)OCC)=C(\C)N(C=O)Cc1cnc(C)nc1N` is inactive: -3.83%. The figure for `CCCS(=O)(=O)NCc1c(C)ncc2c1CCN(C(=O)/C=C/c1ccccc1)C2` is inactive: -17.3%. With `CCNc1ncc2nc(-c3ccc(F)cc3)c(=O)n(CCOC)c2n1` the figure was inactive: -14.6%; with `CCN(CC)CCOC(=O)C(Cc1cccc2ccccc12)CC1CCCO1` (stereo not given), inactive: -12% and inactive: 11.3%. As for `O=c1c(-c2ccccc2)nc2cnc(N3CCOCC3)nc2n1CCc1ccccc1`, the activation was inactive: -4.01%. With `C[C@H](CC[C@@H]1OC1(C)C)C1CC[C@H]2[C@@H]3CC=C4C[C@@H](O)CC[C@]4(C)[C@H]3CC[C@]12C` (stereo not given in full) the figure was inactive: 3.89%; with `COc1c(-c2ccccc2)oc2c(ccc3occc32)c1=O`, inactive: 4.26%. Consider `Cc1c(C(=O)O)c(O)cc2c1C(=O)c1c(O)c([C@@H]3O[C@H](CO)[C@@H](O)[C@H](O)[C@H]3O)c(O)c(O)c1C2=O`, for which the activation was inactive: -3.4%. On to `Cc1ccc(CN2[C@@H](CC3CCCCC3)COCCS2(=O)=O)cc1`, for which the activation is inactive: -34.4%.

For the molecule `Cc1cc(C)c2nccc(/C=C/c3ccc(N(C)C)cc3)c2c1`, the activation was inactive: 3.15%. With `COc1ccc(C(=O)N2CCC[C@@]3(CCN(C(=O)Nc4cccc(C#N)c4)C3)C2)cc1` the figure was inactive: -15.4%; with `O=C1C[C@@H]2c3c(cccc3CN1Cc1ccccc1)C[C@@H](O)[C@H]2O`, inactive: -14%; with `NC(=NCCCCCCN=C(N)/N=C(\N)Nc1ccc(Cl)cc1)/N=C(\N)Nc1ccc(Cl)cc1`, inactive: -10.4% and inactive: -4.44%. With `CC(C)(C)C(=O)C(Oc1ccc(Cl)cc1)n1ccnc1` (stereo not given) the figure was inactive: -11.2%; with `CC(O)(COc1ccccc1)c1ccc2c(c1)CN(Cc1cccc3ncccc13)CCO2` (stereo not given), inactive: -11.1%. The figure for `CC(C)=CCC/C(C)=C/CC/C(C)=C/CO` is inactive: -9.49% and inactive: -37.2% and inactive: -7.85%; for `Cc1nc2sccn2c(=O)c1CCN1CCC(=C(c2ccccc2)c2ccc(F)cc2)CC1` it is inactive: -3.89% and inactive: -8.69%; for `CC(=O)N1CCC[C@@]2(CCN(Cc3ccc(C#N)cc3)C2)C1` it is inactive: -27.6%. For `CC(C)(C)C1CCC(=O)N(CCOc2ccccc2)CC1` (stereo not given), the activation is inactive: -40.1%.

For `S=c1ccss1`, the activation was inactive: -12.1%.

`N[C@H](C(=O)O)c1ccc(C(=O)O)cc1`: the activation is inactive: -5.27% and inactive: 3.47%. Turning to `CC1=C(CC(=O)O)c2cc(F)ccc2/C1=C\c1ccc(S(C)(=O)=O)cc1`, the activation was inactive: -54.7%. With `NC(N)=NC(=O)c1nc(Cl)c(N2CCCCCC2)nc1N` the figure was inactive: 7.58% and inactive: -13.3%.

Take `COC(=O)CC1[C@@]2(C)C[C@@]34OC5(C)OC6(CC[C@@]7(C)C(c8ccoc8)OC(=O)C(C(C)=O)C7[C@]6(O5)C(O)[C@@]3(O)C2O)[C@]14C` (stereo not given in full): the activation was inactive: -14.7%. With `CS(=O)(=O)c1ccc(-c2cc(Br)sc2-c2ccc(F)cc2)cc1` the figure was inactive: -0.502%; with `O=C1CN(/N=C/c2ccc([N+](=O)[O-])o2)C(=O)N1`, inactive: 42.9% and inactive: -14.3%; with `c1ccc2c(c1)CN1CCCC1=N2`, inactive: -27.5% and inactive: -15.8%. The figure for `CC(C)C[C@@H](CSc1ccccc1)N1CCN(CCc2ccccc2)CCC1=O` is inactive: -33.1%. The figure for `NCC1O[C@@H](O[C@H]2C(O)C(O[C@@H]3C(O[C@H]4OC(CO)C(O)C(O)C4N)C(N)CC(N)[C@H]3O)O[C@@H]2CO)C(N)C(O)C1O` (stereo not given in full) is inactive: -11.5%; for `COc1ccc(NC(=O)N2CC3(CCN(C(=O)c4ccco4)CC3)C2)cc1` it is inactive: 2.23%. Regarding `O=c1cnc2cnc(Oc3cccc(Cl)c3)nc2n1CCc1ccccc1`, the activation is inactive: 3.2%. Consider `COc1ccc2[nH]cc(CCNc3ccnc(-c4cccnc4)n3)c2c1`, for which the activation is inactive: 8.22%. Turning to `Cc1ccc(CN2[C@@H](Cc3ccccc3)C(=O)CS2(=O)=O)cc1`, the activation was inactive: -24.1%. The figure for `COc1ccc(C(=O)N2CCC3(CCCN(C(=O)Nc4cccc(C#N)c4)C3)CC2)cc1` is inactive: -15.3%; for `Cc1ccccc1OCC(O)CO` (stereo not given) it is inactive: -11%. Take `CCCCCCCCCCCCCCCCCCc1ccc(C(=O)/C=C\C(=O)O)cc1`: the activation is inactive: -34.6%. Consider `CSCC[C@H](NC(=O)[C@H](Cc1ccc(OS(=O)(=O)O)cc1)NC(=O)[C@@H](N)CC(=O)O)C(=O)NCC(=O)N[C@@H](Cc1c[nH]c2ccccc12)C(=O)N[C@@H](CCSC)C(=O)N[C@@H](CC(=O)O)C(=O)N[C@@H](Cc1ccccc1)C(N)=O`, for which the activation is inactive: -13.9% and inactive: -2.4%. With `NS(=O)(=O)c1cc2c(cc1Cl)NC(CSCc1ccccc1)=NS2(=O)=O` the figure was inactive: -13.2%. For `Cc1cc(C(=O)Nc2ccccc2-c2nc(CNC(=O)c3cc4ccccc4cn3)c(C)o2)c(C)o1`, the activation was inactive: -3.52%. The figure for `CS(=O)(=O)N1CCC2(CC1)CN(Cc1ccc(C#N)cc1)C2` is inactive: -1.21%; for `c1cncc(-c2nc(NCc3cccs3)c3ccccc3n2)c1` it is inactive: -0.0979%.

In the case of `O=C(O)c1ccccc1Nc1cc(Cl)ccc1C(=O)O`, the activation was inactive: 8.54%. The figure for `c1csc(CNc2nc(-c3ccoc3)nc3ccccc23)c1` is inactive: 11.9%; for `CNC1C(O)C2OC3OC(C)CC(=O)[C@@]3(O)O[C@H]2[C@H](NC)C1O` (stereo not given in full) it is inactive: 1.15%; for `O=C(c1ccc2c(c1)OCCO2)N1CCCCC1` it is inactive: -3.26%. With `Cc1nc(C)c(C(=O)N2CCc3c(cnc(C)c3CNC(=O)c3cncs3)C2)s1` the figure was inactive: -2.5%; with `COc1ccc(Oc2ncc3nc(-c4cc(F)cc(F)c4)c(=O)n(C4CC4)c3n2)cc1`, inactive: -9.8%; with `COc1ccc(C(=O)N2CCC3(CCCN(Cc4ccncc4)C3)CC2)cc1`, inactive: -11.2%.
